# Assay results from the supplement of paper PMC3334620.
# The full ranking holds about 33,000 sequences; the median of “E-score (-0.5 to 0.5)” is about -0.012, and the highest 2% start at about 0.27. Some of the results follow.
# Biological target: T1, Vhr1 (UniProt P40522)
# T1 sequence: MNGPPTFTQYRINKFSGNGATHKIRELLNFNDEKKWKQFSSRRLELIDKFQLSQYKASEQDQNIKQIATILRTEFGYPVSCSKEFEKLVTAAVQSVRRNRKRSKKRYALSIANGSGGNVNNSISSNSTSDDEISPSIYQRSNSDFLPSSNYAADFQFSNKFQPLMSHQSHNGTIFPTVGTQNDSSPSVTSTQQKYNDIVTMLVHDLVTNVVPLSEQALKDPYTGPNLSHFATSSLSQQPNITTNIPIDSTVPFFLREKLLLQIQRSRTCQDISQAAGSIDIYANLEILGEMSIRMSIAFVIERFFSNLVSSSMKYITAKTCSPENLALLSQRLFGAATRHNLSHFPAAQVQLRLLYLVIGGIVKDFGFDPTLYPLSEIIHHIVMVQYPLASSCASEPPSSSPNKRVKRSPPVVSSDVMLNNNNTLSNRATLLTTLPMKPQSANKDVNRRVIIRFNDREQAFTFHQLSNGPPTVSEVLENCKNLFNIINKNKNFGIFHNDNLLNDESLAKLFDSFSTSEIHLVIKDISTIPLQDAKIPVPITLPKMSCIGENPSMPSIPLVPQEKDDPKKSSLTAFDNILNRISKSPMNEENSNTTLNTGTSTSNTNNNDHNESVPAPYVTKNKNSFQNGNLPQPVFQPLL
# Test: PBM E-score (8-mer binding enrichment) (E-score (-0.5 to 0.5)); higher = stronger / more preferred TF binding; most listed sequences are background and not binding sites
# Settings: protein concentration: 200 nM; construct: GST-full length
# Procedure: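 Universal 'all 10-mer' protein binding microarrays (Agilent AMADID 015681) probed with GST-tagged S. cerevisiae TFs (full-length or DBD) made by in vitro transcription/translation (PURExpress), about 100-200 nM. Bound TF was detected with fluorescent anti-GST. Each ungapped 8-mer (which stands for itself and its reverse complement) is scored by the PBM enrichment score (E-score), a modified Wilcoxon-Mann-Whitney statistic from -0.5 to +0.5, computed with the Universal PBM Analysis Suite. Scale: above 0.35 generally sequence-specific binding.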
row,Sequence,PBM E-score
1,CCGGTACA,0.00788
2,AGTGCCAG,-0.121
3,ACGTAGTA,-0.102
4,ACGGGCGA,0.0368
5,ACTGATGG,0.0219
6,ACAGGTGC,-0.067
7,ATCTTCAA,-0.0741
8,AATATGAG,-0.0304
9,AAGGAATG,0.00578
10,GACGAATA,0.117
11,CGTACAGA,-0.235
12,AGGGCATG,-0.0187
13,AGCCTACA,-0.0947
14,ACCGTGAA,-0.115
15,GGGCCTGA,-0.21
16,CACTCGCC,0.147
17,ACACGCTC,0.163
18,GGGGCGCA,0.0714
19,ACATTGAA,0.00322
20,ATCTAGCC,-0.136
21,CAGACTCG,0.0994
22,ACCTCAGC,0.0177
23,CTTGCCGA,-0.0901
24,CCGCACCG,0.072
25,ATTAGCTC,-0.0265

row,Sequence,PBM E-score
1,ATAACCTA,0.0304
2,GTCTGCAA,-0.216
3,AGGGGATC,-0.177
4,ATTGTCAG,0.0757
5,AGCGACCC,0.073
6,AGATAAGG,-0.108
7,AGGTATAT,0.0892
8,ACAAGCCT,0.00748
9,TAGTGACA,0.157
10,GGTAGCTA,0.00361
11,GAGAGACA,0.0226
12,CGTAATCC,-0.104
13,ACTGTACC,0.0464
14,AGCCGCAG,-0.122
15,AAGCATTC,-0.184
16,ATTCCGAG,0.0199
17,CGGGGACC,0.146
18,TTAAGTAA,-0.211
19,CTAAGGAC,-0.0588
20,ATTTATGC,-0.107
21,GACAAAAC,0.0548
22,ACGCTTAG,-0.291
23,AATCGTCT,0.0771
24,AGACTACA,0.17
25,CAGGTTCG,-0.0112

row,Sequence,PBM E-score
1,AGTGTATG,0.0962
2,AGGCGTCA,-0.227
3,CTAAGGTA,-0.00806
4,ACTTGTCC,-0.145
5,ATTAGCGA,0.142
6,ATTACATC,0.0987
7,CGGAGGCC,-0.089
8,CACTGGCA,0.0257
9,TCATACAA,0.166
10,CCAGCTCG,0.161
11,ATATTCTG,-0.186
12,CTATTGAA,-0.147
13,AATACGTC,-0.096
14,CTTACGCA,-0.179
15,AAAGAGGT,-0.0464
16,ACCACTAT,0.131
17,AAGGGATT,-0.25
18,ACTGAGGA,0.0736
19,ACCCAGCG,0.106
20,ATTTAGCC,-0.0477
21,CCATTTAC,-0.0973
22,TGCATGAA,-0.0166
23,CCACTAAC,0.0211
24,CACCGTCG,-0.0456
25,AGCAGATA,-0.0255

row,Sequence,PBM E-score
1,CTTGCATA,-0.119
2,GACTCAAC,0.42
3,ATTTTGAA,-0.159
4,ATTTACGG,0.0365
5,GATACAAC,0.091
6,CTCTGGTA,0.0272
7,AGCCGTGG,-0.222
8,ACAAGGTG,0.0576
9,GACGAGGA,0.00776
10,TATCGCGA,0.198
11,ACCAACTG,0.14
12,AGATCGTC,-0.193
13,CATAGTGG,0.115
14,AGAAGCAG,-0.151
15,GGCGATAA,-0.0228
16,CACATCCC,0.223
17,ATGATGAA,0.175
18,AGGCCGAA,-0.0649
19,GACATTAC,0.112
20,TGCTGTAA,-0.117
21,CATGGCAA,-0.031
22,AACCTGAA,-0.0777
23,GCCGAACA,0.0562
24,TTCAACAA,0.0679
25,CCAACTAG,-0.00513

row,Sequence,PBM E-score
1,ACACAGGG,0.127
2,GGGCTTGA,-0.125
3,CCAATTGC,-0.196
4,CCCGAATA,0.0112
5,AAGTAGAC,-0.0556
6,AAATTATT,-0.0495
7,AAAGTTCA,-0.0836
8,ACTTTACG,-0.0234
9,TGCCAAAA,-0.139
10,CGTGGGAA,-0.189
11,GTATTAAC,0.142
12,GATAGAGC,-0.29
13,GGGGATCA,-0.283
14,CTGTCTTC,-0.105
15,CAAAGCAC,-0.025
16,ACTTCGGG,-0.124
17,AAAGTCCC,-0.301
18,ACCTTGCT,-0.137
19,ATATGGAT,0.244
20,TAGCGGAA,-0.193
21,ATCCACTG,0.0196
22,ACAGCTAG,0.0559
23,CGGCACGC,-0.0534
24,ATGTCGCA,0.0604
25,CAGAGGGA,-0.188

row,Sequence,PBM E-score
1,CGGAACAC,0.185
2,AGTCGTTG,0.0341
3,ATACGCGC,0.0339
4,AAGAAGAA,-0.0589
5,GCGATATA,0.108
6,CAGGGGGG,-0.162
7,AGCTATTG,-0.109
8,CCTACCGC,0.0831
9,AGGTGTTC,-0.0649
10,ACTTATCA,0.0454
11,ATAAGGGG,-0.0708
12,TAGACACA,-0.13
13,AGTTGTCA,0.0769
14,TCTATCCA,-0.169
15,ACTTCCTG,-0.0591
16,GAATCAAA,-0.0259
17,ATACTTAC,0.143
18,CGATGCAG,0.118
19,TAATGCCA,0.113
20,GCCTCAAC,-0.121
21,CTCAACTA,0.106
22,AGGGTCAG,-0.161
23,AGACAGAC,0.16
24,ATATAGAA,0.11
25,GTAGACTA,-0.175

row,Sequence,PBM E-score
1,GAACGAAC,-0.0159
2,AAAGTCCA,-0.187
3,AGCCTGGA,0.0881
4,AATCCCTA,-0.0892
5,AGGGCTAG,-0.236
6,ACTATCCT,0.0957
7,ACCCCGAC,0.181
8,CGGGCTAA,-0.119
9,AGTCGAGG,-0.0728
10,TAATAGAA,-0.0679
11,ACTTACCA,-0.103
12,CCTTGGGA,-0.175
13,ATGACTGG,0.298
14,CCGTCCCG,-0.0823
15,GAGCTATC,-0.143
16,CCTTATGC,0.0362
17,GCGGCGGA,0.13
18,TGCATTAA,0.0107
19,TCTTACCA,0.028
20,CAAGTAGA,-0.0412
21,AGGGACGA,-0.0429
22,CCGGCAAC,0.00493
